Reference: PMC8637573, “EWS–FLI1‐targeting peptide identifies Ewing sarcoma tumor boundaries and lymph node metastasis via near‐infrared imaging” (Molecular Oncology, 2021)
Residues, ends and D or L forms follow the SMILES beside them.

System: A673 xenograft tumors
Experiment: In vivo NIR imaging of ES xenograft model
Details: blocking group: locally incubated with 50 μM blocking agent (intratumoral pre‐injection, 1 h) before 150 μL CS2‐N‐E9R i.v.; n = 3 mice
Protocol: All procedures were carried out in compliance with the guide for the care and use of laboratory animal resources and the national research council, and approved by the Animal Biosafety Level 3 Laboratory of Wuhan University Institutional Animal Care and Use Committee (2019131). Mice were purchased from the Model Animal Laboratory of Wuhan University Zhongnan Hospital and housed in a specific pathogen‐free animal facility with a controlled environment (12 h light/dark cycle at 21 °C). To establish an ES xenograft mice model, A673 cells were grown subcutaneously around the right limb of 12‐16 g, 4‐week‐old Balb/c nude mice. Twenty‐one days after inoculation, the xenograft tumor mice were randomly divided into 3 groups (Experimental group/ CS2‐N‐E9R; Control group/ CS2‐N‐E; Blocking group/ CS2‐N‐E9R+E9R). Probes were freshly prepared at the concentration of 25 μM. The experimental group was given 150 μL targeted probe CS2‐N‐E9R, and the control group was given 150 μL nontargeted probe CS2‐N‐E through caudal vein injection. […]
To quantitate NIR fluoresces signal, a circular region‐of‐interest (ROI) was manually defined in the interested region, and the average signal within this ROI was obtained. […] The statistical significance of differences was determined by ANOVA and LSD‐t test. […]

**Q.** How did the “tumor region fluorescence of CS2‐N‐E9R versus background after blocking” value turn out when `CC[C@H](C)[C@H](NC(=O)[C@@H](NC(=O)[C@H](C)NC(=O)[C@H](CC(=O)O)NC(=O)[C@H](CC(C)C)NC(=O)[C@@H]1CCCN1C(=O)[C@@H]1CCCN1C(=O)[C@@H]1CCCN1)C(C)C)C(=O)N[C@@H](CCC(=O)O)C(=O)N[C@@H](C)C(=O)O` [E9R] (H-PPPLDAVIEA-OH; N-terminus assumed) was run?
**A.** The value was “no fluorescence higher than the background”.
